Laboratory results reported in the antibiotic and cytotoxicity screens of Wong et al. (2023).
This is one part of the list.

System: HSkMC (human skeletal muscle cells)
Assay: cytotoxicity call (relative viability < 0.9)
Settings: 10 µM

SMILES	cytotoxicity call
C[C@H]1CCCCO[C@@H](CN(C)C(=O)Nc2ccccc2)[C@@H](C)CN([C@@H](C)CO)C(=O)c2cc(NC(=O)Nc3ccccc3)ccc2O1	inactive
COc1ccc(CN(C)C[C@H]2Oc3ccc(NC(=O)C4CC4)cc3CC(=O)N([C@H](C)CO)C[C@@H]2C)cc1	inactive
C[C@H](CO)N1C[C@H](C)[C@H](CN(C)Cc2ccc3c(c2)OCO3)Oc2c(NC(=O)C3CC3)cccc2C1=O	inactive
C[C@@H]1CN([C@H](C)CO)C(=O)c2cc(NC(=O)Nc3ccc4c(c3)OCO4)ccc2O[C@@H](C)CCCCO[C@H]1CN(C)Cc1ccc(C(=O)O)cc1	inactive
Cc1ccc(S(=O)(=O)N[C@H]2CC[C@H](CC(=O)NCc3ccc(Cl)c(Cl)c3)O[C@H]2CO)cc1	inactive
C[C@@H]1CN([C@@H](C)CO)C(=O)Cc2cc(NC(=O)C3CC3)ccc2O[C@@H]1CN(C)S(=O)(=O)c1cn(C)cn1	inactive
C[C@H](CO)N1C[C@H](C)[C@H](CN(C)Cc2ccc3c(c2)OCO3)Oc2ncc(C#CCN(C)C)cc2C1=O	inactive
C[C@H](CO)N1C[C@H](C)[C@@H](CN(C)C(=O)C2CCCCC2)Oc2cc(C#C[C@@H](C)O)ccc2S1(=O)=O	inactive
C[C@H](CO)N1C[C@H](C)[C@H](CN(C)Cc2ccc(Oc3ccccc3)cc2)Oc2c(NC(=O)Nc3ccc4c(c3)OCO4)cccc2C1=O	inactive
COCC(=O)Nc1ccc2c(c1)C(=O)N(C)[C@H]1CC[C@H](CC(=O)N3CCc4ccccc4C3)O[C@@H]1CO2	inactive
CC(C)(C)[S@@](=O)N1Cc2cc(C(=O)N[C@H]3CCN(Cc4ccccc4)C3)nc(-c3cccc(-c4ccncc4)c3)c2[C@H]1CCO	inactive
COc1ccc(S(=O)(=O)N(C)C[C@H]2Oc3ccc(NC(=O)Cn4cnnn4)cc3C(=O)N([C@H](C)CO)C[C@@H]2C)cc1	inactive
C[C@@H]1CN([C@@H](C)CO)C(=O)c2cccc(NS(=O)(=O)c3cn(C)cn3)c2O[C@H]1CN(C)S(=O)(=O)c1cn(C)cn1	inactive
C[C@@H]1CN([C@H](C)CO)C(=O)c2cc(C#CC3(O)CCCC3)cnc2O[C@@H]1CN(C)C(=O)Nc1ccc2c(c1)OCO2	inactive
Cc1noc(C)c1S(=O)(=O)N(C)C[C@@H]1Oc2ccc(NC(=O)CCN3CCOCC3)cc2CC(=O)N([C@@H](C)CO)C[C@H]1C	inactive
Cc1noc(C)c1S(=O)(=O)Nc1ccc2c(c1)CC(=O)N([C@H](C)CO)C[C@@H](C)[C@H](CN(C)S(=O)(=O)c1ccccc1)O2	inactive
Cn1cnc(S(=O)(=O)N2C[C@H](O)COC[C@@H]3O[C@@H](CC(=O)NCc4cc(F)cc(F)c4)CC[C@H]32)c1	inactive
C[C@@H]1CN([C@@H](C)CO)C(=O)Cc2cc(NC(=O)Cn3cnnn3)ccc2O[C@@H]1CN(C)CC1CCCCC1	inactive
C[C@@H](O)C#Cc1cnc2c(c1)C(=O)N([C@@H](C)CO)C[C@H](C)[C@H](CN(C)C(=O)CN1CCOCC1)O2	inactive
O=C1CCC(=O)N1CN1CCOCC1	inactive

SMILES	cytotoxicity call
C[C@@H]1CN([C@H](C)CO)C(=O)c2cc(NC(=O)Nc3ccc4c(c3)OCO4)ccc2O[C@@H](C)CCCCO[C@@H]1CN(C)C(=O)CCC(F)(F)F	inactive
CN(C)C(=O)c1ccc(-c2cccc(-c3nc(C(=O)NC4CCCCC4)cc4c3[C@@H](CCO)N([S@](=O)C(C)(C)C)C4)c2)cc1	inactive
Cc1noc(C)c1NC(=O)Nc1cccc2c1O[C@H](CN(C)C(=O)NC(C)C)[C@@H](C)CN([C@@H](C)CO)C2=O	inactive
O=C(C[C@@H]1C=C[C@@H](NC(=O)Cc2ccccn2)[C@@H](CO)O1)NCCCN1CCOCC1	inactive
C[C@@H]1CN([C@@H](C)CO)C(=O)Cc2cc(NS(=O)(=O)c3cccs3)ccc2O[C@@H]1CN(C)S(=O)(=O)c1cccs1	inactive
CC[N+](C)(C)c1cccc(O)c1.[Cl-]	inactive
COc1ccc(S(=O)(=O)N(C)C[C@@H]2Oc3c(NC(=O)NC(C)C)cccc3C(=O)N([C@@H](C)CO)C[C@@H]2C)cc1	inactive
C[C@@H]1CCCCO[C@@H](CN(C)Cc2ccc(C(=O)O)cc2)[C@@H](C)CN([C@H](C)CO)C(=O)c2cc(NC(=O)Nc3ccc(F)cc3)ccc2O1	inactive
COc1ccc(CN(C)C[C@@H]2Oc3ccc(NC(=O)Cn4cnnn4)cc3CC(=O)N([C@H](C)CO)C[C@H]2C)cc1	inactive
C[C@H]1CN([C@@H](C)CO)C(=O)c2cccc(NS(=O)(=O)c3ccccc3)c2O[C@@H]1CN(C)S(=O)(=O)c1cccs1	inactive
COc1ccc(NC(=O)Nc2ccc3c(c2)CC(=O)N([C@@H](C)CO)C[C@@H](C)[C@@H](CN(C)Cc2ccc(Oc4ccccc4)cc2)O3)cc1	inactive
C=CC[C@H](CC(=O)NCCO)C(=O)NC[C@H](OC(=O)[C@H](CC=C)CC(=O)OC(C)(C)C)c1ccccc1	inactive
C[C@H](CO)N1C[C@H](C)[C@H](CN(C)Cc2ccc(Cl)c(Cl)c2)Oc2c(NS(=O)(=O)c3ccccc3)cccc2C1=O	inactive
COc1cc(N2CCN(S(C)(=O)=O)CC2)nc(C)n1	inactive
C[C@@H]1CN([C@H](C)CO)C(=O)c2cccc(NC(=O)NC3CCCCC3)c2O[C@H]1CN(C)Cc1ccc(Oc2ccccc2)cc1	inactive
COc1ccc(COC[C@]23Oc4ccccc4[C@H]([C@H]2CO[Si](C)(C)C(C)(C)C)N(C(=O)CC(C)=O)C(=O)N3C)cc1	inactive
COC(=O)c1cccc(NC(=N)N=C(N)N)c1	inactive
Cn1cnc(S(=O)(=O)N2C[C@@H](O)COC[C@@H]3O[C@H](CC(=O)NCc4ccc(F)cc4)CC[C@H]32)c1	inactive
C[C@H]1CN([C@@H](C)CO)S(=O)(=O)c2ccc(-c3ccc(F)cc3)cc2O[C@H]1CN(C)S(C)(=O)=O	inactive
